Measurements as given in the supplement of paper PMC4967469.
By IC50 is meant the dose at which the fit gives 50% viability; where the fit passes the top or lowest dose, that dose stands as a limit. The AUC spans the tested range (256-fold, ending at the top dose) of the same fit; values near 1 show little effect. For some assays here: A top dose marked as inferred comes from the curve model; the source does not state it. For some assays here: Where an entry number is given, a second screen of the drug exists; the two often differ.

Tests used:
Experiment in all cases: Viability of human cancer cell lines after 72 h of drug (GDSC screen)
LFM-A13 = compound: C/C(O)=C(\C#N)C(=O)Nc1cc(Br)ccc1Br [LFM-A13]; details: top dose 16 µM; top dose inferred
Method: (§1)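 Human cancer cell lines in 384-well plates, medium with 10% serum, drug for 72 h over a 256-fold dose range (nine 2-fold or five 4-fold steps up to the top dose). Adherent lines were fixed and stained with the nucleic acid dye Syto60, suspension lines read with resazurin; signal relative to control wells, capped at 0 and 100%. One two-parameter sigmoid per drug and line, fitted in a mixed model over all curves with the slope shared within a line.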

TW-37 = compound: CC(C)c1ccccc1Cc1cc(C(=O)Nc2ccc(S(=O)(=O)c3ccccc3C(C)(C)C)cc2)c(O)c(O)c1O [TW-37]; details: top dose 5 µM
Method: as §1

Bicalutamide = compound: CC(O)(CS(=O)(=O)c1ccc(F)cc1)C(=O)Nc1ccc(C#N)c(C(F)(F)F)c1 [Bicalutamide]; details: top dose inferred
Method: as §1

AUY922 = compound: CCNC(=O)c1noc(-c2cc(C(C)C)c(O)cc2O)c1-c1ccc(CN2CCOCC2)cc1 [AUY922]; details: top dose 0.256 µM; top dose inferred
Method: as §1

KIN001-270 = compound: Cc1ccc(Nc2cc(-c3cccc(N4C(=O)c5ccccc5C4=O)c3)ncn2)cc1NS(C)(=O)=O [KIN001-270]; details: top dose 20 µM; top dose inferred
Method: as §1

Nilotinib = compound: Cc1cn(-c2cc(NC(=O)c3ccc(C)c(Nc4nccc(-c5cccnc5)n4)c3)cc(C(F)(F)F)c2)cn1 [Nilotinib]; details: top dose 2 µM
Method: as §1

GNF-2 = compound: NC(=O)c1cccc(-c2cc(Nc3ccc(OC(F)(F)F)cc3)ncn2)c1 [GNF-2]; details: top dose 1.28 µM; top dose inferred
Method: as §1

Gemcitabine = compound: Nc1ccn([C@@H]2O[C@H](CO)[C@@H](O)C2(F)F)c(=O)n1 [Gemcitabine]; details: top dose 1.024 µM
Method: as §1

T0901317 = compound: O=S(=O)(c1ccccc1)N(CC(F)(F)F)c1ccc(C(O)(C(F)(F)F)C(F)(F)F)cc1 [T0901317]; details: top dose 10.24 µM; top dose inferred
Method: as §1

MP470 = compound: S=C(NCc1ccc2c(c1)OCO2)N1CCN(c2ncnc3c2oc2ccccc23)CC1 [MP470]; details: top dose 20 µM; top dose inferred
Method: as §1

[1] = top dose 1.024 µM, screen: GDSC drug entry 150
[2] = top dose 10 µM, screen: GDSC drug entry 1502

Row | Cell Line | AUC (LFM-A13) | IC50 (LFM-A13) [µM] | AUC (TW-37) | IC50 (TW-37) [µM] | AUC (Bicalutamide; [1]) | IC50 (Bicalutamide; [1]) [µM] | AUC (Bicalutamide; [2]) | IC50 (Bicalutamide; [2]) [µM] | AUC (AUY922) | IC50 (AUY922) [µM] | AUC (KIN001-270) | IC50 (KIN001-270) [µM] | AUC (Nilotinib) | IC50 (Nilotinib) [µM] | AUC (GNF-2) | IC50 (GNF-2) [µM] | AUC (Gemcitabine) | IC50 (Gemcitabine) [µM] | AUC (T0901317) | IC50 (T0901317) [µM] | AUC (MP470) | IC50 (MP470) [µM]
1 | GOTO (neuroblastoma, adherent) | 0.984 | > 16 | 0.462 | 0.243 | 0.983 | > 1.02 | 0.971 | > 10 | 0.782 | 0.123 | 0.896 | > 20 | 0.982 | > 2 | 0.981 | > 1.28 | 0.767 | 0.432 | 0.967 | > 10.2 | 0.378 | 0.548
2 | TE-11 (oesophagus, adherent) | 0.978 | > 16 | 0.523 | 0.36 | 0.985 | > 1.02 | 0.987 | > 10 | 0.862 | 0.189 | 0.988 | > 20 | 0.978 | > 2 | 0.985 | > 1.28 | 0.941 | > 1.02 | 0.981 | > 10.2 | 0.964 | > 20
3 | NB1 (neuroblastoma, semi-adherent) | 0.953 | > 16 | 0.631 | 0.749 | 0.984 | > 1.02 | 0.982 | > 10 | 0.772 | 0.109 | 0.901 | > 20 | 0.983 | > 2 | 0.954 | > 1.28 | 0.718 | 0.284 | 0.956 | > 10.2 | 0.765 | 8.04
4 | BL-41 (Burkitt lymphoma, suspension) | 0.991 | > 16 | 0.374 | 0.153 | 0.994 | > 1.02 | 0.994 | > 10 | 0.535 | 0.0195 | 0.773 | 6.01 | 0.988 | > 2 | 0.987 | > 1.28 | 0.17 | 0.00917 | 0.074 | 0.0421 | 0.151 | 0.157
5 | HCC1187 (breast, suspension) | 0.985 | > 16 | 0.551 |  | 0.987 | > 1.02 | 0.976 | > 10 | 0.924 | > 0.256 | 0.975 | > 20 | 0.985 | > 2 | 0.983 | > 1.28 | 0.986 | > 1.02 | 0.969 | > 10.2 | 0.924 | > 20
6 | KNS-42 (glioma, adherent) | 0.943 | > 16 | 0.785 | 2.59 | 0.984 | > 1.02 | 0.971 | > 10 | 0.872 | > 0.256 | 0.968 | > 20 | 0.982 | > 2 | 0.982 | > 1.28 | 0.793 | 0.57 | 0.984 | > 10.2 | 0.976 | > 20
7 | NCI-SNU-1 (stomach, suspension) | 0.983 | > 16 | 0.813 | 2.82 | 0.985 | > 1.02 | 0.985 | > 10 | 0.424 | 0.00984 | 0.916 | > 20 | 0.981 | > 2 | 0.988 | > 1.28 | 0.126 | < 0.004 | 0.959 | > 10.2 | 0.905 | > 20
8 | TE-6 (oesophagus, adherent) | 0.983 | > 16 | 0.904 | > 5 | 0.986 | > 1.02 | 0.983 | > 10 | 0.825 | 0.189 | 0.968 | > 20 | 0.986 | > 2 | 0.945 | > 1.28 | 0.748 | 0.38 | 0.981 | > 10.2 | 0.908 | > 20
9 | TE-9 (oesophagus, adherent) | 0.98 | > 16 | 0.473 | 0.263 | 0.987 | > 1.02 | 0.974 | > 10 | 0.63 | 0.0371 | 0.977 | > 20 | 0.987 | > 2 | 0.982 | > 1.28 | 0.569 | 0.0994 | 0.962 | > 10.2 | 0.959 | > 20
10 | LU-165 (small cell lung carcinoma, suspension) | 0.984 | > 16 | 0.946 | > 5 | 0.988 | > 1.02 | 0.977 | > 10 | 0.822 | 0.174 | 0.934 | > 20 | 0.987 | > 2 | 0.988 | > 1.28 | 0.858 | 1.01 | 0.986 | > 10.2 | 0.964 | > 20
11 | C2BBe1 (large intestine, adherent) | 0.98 | > 16 | 0.507 | 0.327 | 0.983 | > 1.02 | 0.984 | > 10 | 0.626 | 0.0374 | 0.962 | > 20 | 0.955 | > 2 | 0.976 | > 1.28 | 0.829 | 0.76 | 0.986 | > 10.2 | 0.945 | > 20
12 | KARPAS-422 (B-cell lymphoma, suspension) | 0.983 | > 16 | 0.747 | 1.57 | 0.988 | > 1.02 | 0.984 | > 10 | 0.687 | 0.0528 | 0.984 | > 20 | 0.986 | > 2 | 0.984 | > 1.28 | 0.525 | 0.075 | 0.986 | > 10.2 | 0.948 | > 20
